Molecular target: T1, Human C3 (native C3) (human, UniProt P01024 23-1663)
T1 construct: Purified from outdated human plasma; The entry is given as one stretch, 23-1663; also called hC3; Nat C3
Assay: SEC (Superdex 200 increase), 1:1 molar mix

B1: IgG-Fc-hC3Nb1 (Fc fusion)
chain: [sequence of human IgG1 Fc with C220S (EU numbers) and a few adjoining residues omitted]QVQLVETGGGLVQAGGSLRLSCAASGSIFSINAMGWFRQAPGKEREFVATINRSGGRTYYADSVKGRFTISRDNGKNMVYLQMHSLKPEDTAIYYCAAGTGWSPQTDNEYNYWGQGTQVTVSS
notes: also called IgG-Fc-hC3bNb1; lgG-Fc-hC3Nb1
**Q.** Does B1 bind?
**A.** no binding
